Data taken from the RNAGym collection of RNA variant scans (doi:10.7554/elife.90254).
Read counts are not given, so values of variants with three or more changes are uncertain.

B1: LINE1-mini (parent)
chain: GGCAGAGCUCAACACAGCGUGGCAAAGUGGCUGUGGCUAGACUGCC

Variants of: B1
Test: self-cleavage, relative activity (ratio to wild type); higher = more cleavage; in vitro, sequencing; the parent is a self-cleaving ribozyme

| Variant | self-cleavage |
| --- | --- |
| G7C A14C G22U A26U G27C | 1.2 |
| U20C A26C C42G | 0.08 |
| A14U G22A A24U G29C | 0.14 |
| A6C G7C G22C G29A G40C C45A | 0.03 |
| A24C A26G G44A | 0 |
| U9G G29C G30U C31U G35C | 0.02 |
| G5C U20G G33U | 0.03 |
| G19C G33C G35A | 0.17 |
| C8U G17A G22U | 0.17 |
| G5A C23A C31A C37U | 0.23 |
| G5A U9C A12C C18A G30U G35C G40A | 0.02 |
| G27A G33A C46A | 0.04 |
| G7C C18U C31A | 0.06 |
| G19U G29U G30A | 1.52 |
| U28A U32G C37G U38G U43C | 0.01 |
| G7C C13A G30C | 0.09 |
| U20C G33U A39U | 0.08 |
| G2C C3A A12G | 0.04 |
| A12C C31U A39U | 0.02 |
| G2C C15U G30U U34C | 0.15 |
| G7U A14C C15U A16G G17C C18G G19U | 0.1 |
| U28C A39U G40C C46A | 0.39 |
| G22U G35A C42A | 0.01 |
| C3A A6C G19C G30U G33U | 0.15 |

| Variant | self-cleavage |
| --- | --- |
| U9A G29C C46G | 0.04 |
| G7C C31U A39U C45G | 0.02 |
| A6C C13U C15A U20G G22U C45U | 0.03 |
| G21U G22U C31A G36A G44A | 0.35 |
| G2U U9C G22U | 0.01 |
| A6C G7C G30A | 0.8 |
| G2C C8U C18G G36U U43A | 0.06 |
| G7U C15A A39C A41U | 0.09 |
| G2U G7C U28A U38C C45A | 0.02 |
| G19C C31U A39U C45U | 0.74 |
| G33C G36C G40U | 0.03 |
| G1C G7C C8A U9A C10G C18A G29C C46U | 0 |
| G1U G2A A6C C13G C15G U38C | 0.02 |
| C10A A14G G17C C37G | 0 |
| G1C G2U A16U U34C A39U C46G | 0.01 |
| A14G C18G G40A C45U | 0 |
| A4G C10A A12U G19U G21U A25U G33U | 0.01 |
| G7A C13U C15G A26U G44U | 0.3 |
| C10G C18A C37U | 0.01 |
| G2A C3A A16U U20A U43A | 0.61 |
| G21U G22U U32G | 0.26 |
| G5A A6C A11G A12C C13A G27A | 0.03 |
| U9A C10A A24C G33U G40U C42G | 0 |
| G2C G5A A16C | 0.28 |

| Variant | self-cleavage |
| --- | --- |
| A4C A25C C37A G44A | 0.17 |
| A11U A26G G40C | 0.02 |
| A4U C13U G33A G36C | 0.04 |
| G2U C8U G35A | 0.26 |
| G2A G17U A39G C46G | 0.06 |
| G1C G2U A16C | 0.02 |
| C8A A11G U32G | 0.03 |
| G1C A14C C15A A16U | 0.02 |
| C10A A14C G21A G22A | 0.02 |
| A11C C23A U43C G44C | 0.01 |
| G5A C8A A14U A24U A25G | 0.16 |
| G21U U38G C45U | 0.05 |
| G29U G40U C45G | 0.06 |
| C3U C13A C31A G35U | 0.14 |
| G5U G7C C8A A12C G30C | 0.06 |
| A26G G27C G33U A41U C42A | 0.13 |
| G5U C42G C46A | 0.02 |
| U9C A12U A16U C37A | 0.03 |
| U20C U38A C46U | 0.21 |
| C37A G40U A41C C42A | 0.12 |
| A14C C31U A41G | 0 |
| C8A A25U G33U U43G | 0 |
| G22C G29A G40A | 0.07 |
| G1A G7A G19C G22A G30A | 0.12 |

| Variant | self-cleavage |
| --- | --- |
| U9A G21A G27C U34G G44U | 0.24 |
| G2U C18U C45U | 0.02 |
| A6G C8U C13U U20G G21U A26C | 0.02 |
| G35U A41G C42U | 0.07 |
| A6G G7A C31A U38A | 0.05 |
| U9A G19U U20C | 0.04 |
| A4C G35A C46A | 0.23 |
| A6C C8A C31A G44U | 0.18 |
| A6U G30U G35A A41G G44C | 0.08 |
| G27A U28G G30U | 1.72 |
| C8A G21A G33U G40C | 0.22 |
| C10G U32C G36A | 0.06 |
| A6G G7A U9A C13U A24U G30A G40U | 0.18 |
| G1C C15G U20C | 0.02 |
| C8A A12U A16C A26G U34A | 0.01 |
| C3U G30U C42U | 0.09 |
| G1C G5U G44A | 0.01 |
| C10A A14G C31A U32G A41U | 0.01 |
| G33U G35U C45U | 0.15 |
| G1A U9G G35U U38A | 0.07 |
| G17U C23G C37A | 0.19 |
| G2C C18U G35C | 0.03 |
| G1U G21A C37A | 0.11 |
| A12G G17U C23U | 0.02 |

| Variant | self-cleavage |
| --- | --- |
| C18U U34C C46U | 0.04 |
| A4U G5A C23G G44C | 0.64 |
| C3G G7A C8A U9C A12G U20A A39U | 0.12 |
| C15U U20A A24C G40U | 0.09 |
| G7U C15A C23U A25G G27U C42U G44A | 0.18 |
| C3U A11C G22U A39U G40A | 0 |
| G22A A41G C42A | 0.05 |
| A4U G30U G35A A41U | 0.03 |
| C3G C13U C18U G21A G29A G36U | 0.28 |
| A6U G40C C46U | 0.14 |
| A6C U9C A25G G27U | 0.07 |
| C8A A14C G27A C42U | 0.16 |
| G1C C23U C31G C37A C46U | 0.01 |
| A16G C18A U20A U28C | 0.05 |
| U9G C15A C31A | 0.17 |
| A16C C18A U20C | 0.14 |
| G2U C18G A25C | 0.06 |
| C10U G21U A26C C31U G40U C42U C46G | 0.01 |
| C31U G35A G36A A41G C46U | 0.02 |
| C3G G33U C46U | 0.1 |
| C10A G27A G44A | 0.06 |
| U20C A24G C45G | 0.8 |
| G1U A14C U32G G40C | 0.01 |
| G27A G29C A39C G40U | 0.02 |

| Variant | self-cleavage |
| --- | --- |
| G1U G21U U38G C45U | 0 |
| G22A A39G C42A | 0.03 |
| G1U A4C U32A | 0.03 |
| A11U G22U C31U A41C | 0.01 |
| G7U C31A G36U | 0.04 |
| A12G U34G G35C G40U | 0 |
| G1C G35U A39U C42G C45A | 0.02 |
| C10A G29A U38G | 0.03 |
| G2U G27U G30U | 0.09 |
| G27U G35C C46G | 0.03 |
| G29A C31U C42U | 0.25 |
| C10U A25U G27U | 0.18 |
| G2U C8G C13U G17A | 0.03 |
| G2C U9C G19A U20A G22C C46G | 0.01 |
| A11C A24U G29C | 0.05 |
| C13U C23A A26G G27U U32A G36A | 0.17 |
| G22C G30A C45A | 0.19 |
| A4C G22C G44C C45A | 0.12 |
| C3A A24C G40A | 0.09 |
| G2A G5C G44U | 0.25 |
| A6U A11C C18A A24G | 0.01 |
| G1C U9G G27A G40U | 0.01 |
| A11C G19A C42A | 0.02 |
| A4U C18A G27U | 0.05 |

| Variant | self-cleavage |
| --- | --- |
| C3U G5A G17U G21A G30C | 0.04 |
| G21U A24C C46U | 1.24 |
| C15A U20G A26C | 0.09 |
| G22A C23G U28A | 0.33 |
| C3A C8G G21C C31A G44A | 0.07 |
| A16C G21U U32G | 0.83 |
| A6U A14G C37A | 0.03 |
| G21U A24C A26U | 0.41 |
| C8U G40C C46A | 0.03 |
| C3A U9A G40U G44U | 0.09 |
| A11C A12G G30A U38C A41C | 0.02 |
| G19C G30U G44C C45U | 0.1 |
| G33A G35C U38A | 0.04 |
| C10U A14C A25U C37A | 0.06 |
| U20G A24C G29A U34A G44U | 0.08 |
| C8G A26G C31G | 0.04 |
| G5A C15A A16G A24G | 0.03 |
| G2U A6U U20A A41C | 0.04 |
| G7A C8A C23G A24U A25U A26U | 0.04 |
| G5A C18A G29C G30U C45U | 0.06 |
| A4U G7C U9A C13G A39G | 0.12 |
| G19U G21C C23U G29C G44A | 0.14 |
| A16C G22C U34G | 0.02 |
